# In article PMC4336329 (PLoS ONE, 2015):
# Hit rate of the full screen: of about 310,000 compounds, about 14,000 (4.5%) showed an effect of 50% or more. Effects have a minus sign here. The list shows a part of the results.
# Target: human ether-à-go-go-related gene (hERG) potassium channel (human, UniProt Q12809)
# Experiment: primary screen, population patch clamp on CHO cells stably expressing hERG
# 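Note: peak tail current of the secondary pulse compared with the same well before compound.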
# human ether-à-go-go-related gene (hERG) potassium channel, sequence (Q12809 whole entry, looked up): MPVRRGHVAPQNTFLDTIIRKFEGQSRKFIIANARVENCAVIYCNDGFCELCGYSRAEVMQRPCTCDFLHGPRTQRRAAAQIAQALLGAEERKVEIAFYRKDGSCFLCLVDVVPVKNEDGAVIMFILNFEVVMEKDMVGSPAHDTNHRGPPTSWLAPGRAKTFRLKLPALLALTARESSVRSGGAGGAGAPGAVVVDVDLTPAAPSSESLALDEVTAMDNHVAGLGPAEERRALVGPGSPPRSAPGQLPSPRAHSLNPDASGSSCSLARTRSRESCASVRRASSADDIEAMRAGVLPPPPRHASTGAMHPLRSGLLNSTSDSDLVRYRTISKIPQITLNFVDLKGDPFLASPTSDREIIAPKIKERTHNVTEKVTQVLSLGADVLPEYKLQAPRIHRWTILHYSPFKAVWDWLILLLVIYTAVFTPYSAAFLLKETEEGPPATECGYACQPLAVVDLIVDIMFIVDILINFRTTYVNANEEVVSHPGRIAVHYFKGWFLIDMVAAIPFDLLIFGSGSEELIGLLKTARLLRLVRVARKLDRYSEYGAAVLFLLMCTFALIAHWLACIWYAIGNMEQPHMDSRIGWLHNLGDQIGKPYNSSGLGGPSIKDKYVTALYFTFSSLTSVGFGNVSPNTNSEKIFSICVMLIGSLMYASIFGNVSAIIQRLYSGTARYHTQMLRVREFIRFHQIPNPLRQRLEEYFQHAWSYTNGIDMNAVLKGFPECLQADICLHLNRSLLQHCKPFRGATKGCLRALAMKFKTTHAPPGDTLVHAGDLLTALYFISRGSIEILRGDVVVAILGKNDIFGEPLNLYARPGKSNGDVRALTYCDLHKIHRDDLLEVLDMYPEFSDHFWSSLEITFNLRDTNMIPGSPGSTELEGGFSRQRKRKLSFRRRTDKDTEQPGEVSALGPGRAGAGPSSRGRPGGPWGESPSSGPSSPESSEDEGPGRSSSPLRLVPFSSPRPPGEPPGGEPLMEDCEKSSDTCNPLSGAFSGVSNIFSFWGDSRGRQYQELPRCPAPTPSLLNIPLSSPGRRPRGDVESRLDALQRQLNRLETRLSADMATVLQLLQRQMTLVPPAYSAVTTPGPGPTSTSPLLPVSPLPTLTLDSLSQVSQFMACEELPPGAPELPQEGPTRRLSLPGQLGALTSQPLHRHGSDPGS
row,Structure (SMILES),"hERG current change (%, negative = inhibition) at 10uM [%]"
1,O=C1NC2=C(C(=O)CCC2)C(c2ccc([N+](=O)[O-])cc2)N1 (stereo not shown),17.2
2,CCOC(=O)Cn1c(CCC(=O)O)ccc1-c1ccc(F)cc1,11.8
3,CCC(NS(=O)(=O)c1ccc(OC)cc1)C(=O)O (stereo not shown),-9.95
4,Cc1ccc(-c2nc3ccccc3c(=O)n2CCCn2ccnc2)cc1,-57.7
5,Cc1ccccc1C(=O)c1cccn1CC(=O)NCCCN1CC(C)CC(C)C1 (stereo not shown),-72.1
6,COc1ccc(F)cc1C(=O)C1CCCN(Cc2ccc(Sc3nncn3C)o2)C1 (stereo not shown),12.6
7,O=C(Nc1nc(-c2ccc(Br)cc2)cs1)c1cccnc1,5.72
8,CCOC(=O)[C@H]1[C@H]2COc3ccccc3[C@@H]2N2C(=O)c3cc(F)ccc3NC(=O)[C@@]12C,-26.5
9,O=C(CCc1nc2ccccc2c(=O)[nH]1)Nc1nnc(SCc2ccc(Cl)cc2)s1,11.9
10,Cc1ccnc(NC(=O)CS(=O)(=O)Cc2ccccc2)c1,-0.409
11,CNS(=O)(=O)c1ccc(N2CCCC2)c([N+](=O)[O-])c1,10.5
12,Cc1noc(C)c1COC(=O)c1ccc(F)c(S(=O)(=O)N2CCCCC2)c1,-22.7
13,O=C1/C(=C/c2ccccn2)SC(=S)N1N1CCOCC1,21
14,CCOC(=O)CCSc1cc(C)c2ccccc2n1,6.83
15,CC(=O)N(c1ccccc1)C1CCCC1,0.476
16,O=C1CCC/C1=C/Nc1cccc(F)c1,12.3
17,Cc1ccc(-c2nc(SCC(=O)Nc3cc(C)on3)c3c(=O)n(C)c(=O)n(C)c3n2)cc1,19.9
18,Cc1cc([N+](=O)[O-])ccc1NC(=O)C(C)[n+]1ccccc1.[Br-] (stereo not shown),18.6
19,CC(=O)N1CCN(c2ccc(NC(=O)c3cccc(OCc4ccccc4)c3)cc2)CC1,7.06
20,COc1ccc(C(=O)/C=C/Nc2ccc(C)cn2)cc1OC,-6.9
21,COc1ccc(Cl)cc1-n1c(C)cc(C=O)c1C,4.29
22,C=C(C)COc1ccc(-c2nc(N)ncc2-c2ccccc2OC)c(O)c1,-31.6

row,Structure (SMILES),"hERG current change (%, negative = inhibition) at 10uM [%]"
1,Cc1ccc(C#CC(C)(O)C(C)(C)C)cn1 (stereo not shown),19.4
2,CC(C)(C)c1nc(Sc2ccc([N+](=O)[O-])cn2)n[nH]1,5.64
3,CC(C)c1ccc(CNCCCSc2ncccn2)cc1.Cl,-22.4
4,O=C(CCOc1ccccc1)N1CCN(S(=O)(=O)c2cccs2)CC1,-9.15
5,CCCCOc1ccc(N(CC(=O)NC2CCCCC2)C(=O)c2snc(C(N)=O)c2N)cc1,1.59
6,COC(=O)c1cc(CNC(=O)c2ccccc2Cl)ccc1OC,0.487
7,CCN(CC(=O)Nc1ccc(S(=O)(=O)N2CCCC2)cc1)Cc1ccccc1,-23.9
8,Cc1nnc(NC2=NCCC2)s1,10.6
9,CCCCC(=O)Nc1nc2c(s1)COc1ccccc1-2,3.76
10,CCOc1ccccc1NC(=O)C1=C(C)NC(=S)NC1c1cccs1 (stereo not shown),-0.276
11,Cc1ccc(CNC(=O)c2cc3c(C)nc4ccccc4c3o2)cc1,2.72
12,CCCCn1c(SCC(=O)N2CCCCC2C)nc2cc(S(N)(=O)=O)ccc21 (stereo not shown),-26.4
13,O=C(CSc1nccc(=O)[nH]1)Nc1cc(C(F)(F)F)ccc1N1CCOCC1,15.5
14,COc1cccc(NC(=S)NCc2ccncc2)c1,-7.35
15,Cc1onc(-c2ccccc2Cl)c1C(=O)Nc1cccc(-c2cn3cccnc3n2)c1,-24.8
16,Cc1ccc(C)c(NC(=O)COC(=O)Cn2c(C)csc2=O)c1,6.84
17,Cc1ccc(N(CC(=O)NCc2ccccc2)C(=O)CCC(=O)Nc2ccccn2)cc1C,16.4
18,CCOc1cccc(OCCOCCN(C)Cc2ccccc2)c1,-49.3
19,O=C(CSc1nnc(C2CCCCC2)o1)N1CCCCC1,1.43
20,O=C(O)Cc1sc(-c2ccccc2)nc1-c1cccs1,15.6
21,Cc1cn2c(=O)c(C(=O)N3CCN(c4ccccc4F)CC3)cnc2s1,-6.27
22,Cl.NC(c1ccccc1)c1ccncc1 (stereo not shown),15.3

row,Structure (SMILES),"hERG current change (%, negative = inhibition) at 10uM [%]"
1,COc1cccc(O)c1CN1CCC(n2nccc2NC(=O)c2ccc3c(c2)OCO3)CC1,-24
2,CC(=O)c1sc2nc(-c3cccs3)cc(C(F)(F)F)c2c1N,14.5
3,CC(C)NC(=O)/C(=C/c1ccco1)c1ccccc1,-2.25
4,CCCCN1C(=O)C(=O)N(CC(=O)c2ccc3c(c2)OCO3)C1=O,-5.91
5,CCCC(=O)Nc1ccc(C(=O)NCCc2ccc(F)cc2)cc1,8.66
6,CCCn1c(C)cc(/C=C(\C#N)C(=O)OCC(=O)Nc2ccc(OC)c(Cl)c2)c1C,12.1
7,O=C(CNC(=O)c1ccc(Cl)cc1)Nc1ccc(S(=O)(=O)Nc2ncccn2)cc1,2.39
8,O=C1[C@H]2[C@@H](C3CC3)N3C(=O)CN(Cc4ccccn4)C(=O)[C@@]3(Cc3ccccc3)[C@H]2C(=O)N1c1ccccc1,5.24
9,COC(=O)C1=Nc2ccccc2/C1=C\c1c(O)n(C)c(=O)n(C)c1=O,11.2
10,Cc1onc(-c2ccccc2)c1C(=O)Nc1ccc2c(c1)OCO2,-0.651
11,CCc1ccc2c(c1)c(N=NC1=NC(=O)CS1)c(O)n2CC,11.2
12,CSc1nnc(C(C)c2ncc(C(F)(F)F)cc2Cl)n1C (stereo not shown),8.26
13,Cc1c(C(=O)N2CCCC2)c(S(=O)(=O)N2CCN(c3ccccc3F)CC2)c(C)n1C,-10.7
14,Cc1nc2scc(C)n2c(=O)c1S(=O)(=O)NCc1ccccc1Cl,8.43
15,Cc1ccc(-c2cc(C(=O)OCC(=O)Nc3cc(C)on3)c3ccccc3n2)c(C)c1,2.66
16,CN(Cc1cc(=O)n2ccsc2n1)c1ccccc1,3.26
17,CCCC(=O)O[C@]1(C(=O)CCl)[C@@H](C)C[C@H]2[C@@H]3CCC4=CC(=O)C=C[C@]4(C)[C@@]3(F)C(=O)C[C@@]21C,-15.5
18,CCN(CC(=O)N1CCC(C)CC1)S(=O)(=O)c1ccc(C)cc1,7.48
19,Cc1cccn2c(=O)c(/C=C(\C#N)C(=O)NC3CCS(=O)(=O)C3)c(N3CC(C)OC(C)C3)nc12 (stereo not shown),14.7
20,CCc1ccc(N2CC(C(=O)Nc3ccc(S(=O)(=O)N4CCOCC4)cc3)CC2=O)cc1 (stereo not shown),5.25
21,O=C(NC1CCCCC1)c1cc(-c2ccccc2O)on1,4.01
22,CCc1nnc(NC(=O)CSc2nc3c(c(=O)n2-c2ccccc2OC)SCC3)s1,1.46

row,Structure (SMILES),"hERG current change (%, negative = inhibition) at 10uM [%]"
1,CC(C)CN(C(=O)Cn1c(Cl)nc2c1c(=O)n(C)c(=O)n2C)C1CCS(=O)(=O)C1 (stereo not shown),-11.1
2,O=C(OCCCN=C1NS(=O)(=O)c2ccccc21)c1ccccc1,-8.79
3,CC1(C)CC(=O)C2=C(C1)OC1=C(C2)C(=O)CC(C)(C)C1,-16.3
4,Clc1ccc(CSc2ncn[nH]2)cc1,-0.0684
5,CCCNC(=O)c1cccc(NC(=O)C(C)C)c1,-25.4
6,NC1=NN=C(N2N=C(c3ccccc3)CC2(O)C(F)(F)F)n2ncnc2C1 (stereo not shown),-34.2
7,Cc1ccccc1NC(=O)CCc1c(C)nn(-c2ccc(N3CCCCC3)nn2)c1C,-3.03
8,Cc1cccc(OCCn2c(-c3ccco3)nc3ccccc32)c1,5.1
9,O=C(CSCC(=O)N1CCCc2ccccc21)Nc1nc(-c2ccccc2)cs1,12.4
10,O=C(COc1ccc2ccc(=O)oc2c1)NC1CCCCC1,1.43
11,Cc1ccc(NC(=S)N2CCC(NC(=O)c3ccc(F)cc3)CC2)cc1,-1.76
12,COc1ccc(CN2CCC(=O)N([C@H](CO)c3ccccc3)CC2)cc1,13.3
13,O=C(O)CSc1nnc(-c2cccc(S(=O)(=O)N3CCOCC3)c2)n1-c1cccc(Cl)c1,12.2
14,Cc1ccn2c(=O)nc(SCC(=O)Nc3cccc4ccccc34)nc2c1,-27.5
15,Cc1ccccc1NS(=O)(=O)c1csc(C(N)=O)c1,23.7
16,O=[N+]([O-])c1ccc(OCCCOc2cccc3cccnc23)cc1,-18.1
17,COc1cccc([C@@H]2CC=C(C(=O)O)[C@H](c3ccc(Cl)cc3)N2S(=O)(=O)c2ccc(C)cc2)c1,-3.21
18,O=C(CSc1nc2ccccc2c(=O)[nH]1)Nc1ccc(N2CCOCC2)cc1,2.05
19,Cc1cc(NC(=O)C2CCCN(S(=O)(=O)c3cnc[nH]3)C2)ccc1Br (stereo not shown),15.4
20,O=S(=O)(c1ccc2ccccc2c1)N1CCc2ccccc21,4.44
21,CC(C)(C)OC(=O)N1CCC[C@H]1C(=O)N/N=C/c1cccc2cccnc12,6.67
22,CC(CCc1ccccc1)NC(=O)c1ccc(Cl)nc1 (stereo not shown),-23.6
